Reference: US20230122079A1 (Zymeworks, published 2023)

Target: IL12 receptors IL12Rβ1 and IL12Rβ2 (on CD8+ T cells) (human, UniProt P42701 24-662; Q99665 24-862)
Experiment: cell-based or functional assay

Fold Change in Potency compared to corresponding non-masked reduced-potency IL12 variant v33495 (Masked Variant EC50/Non-masked Variant EC50); IFNγ production by CD8T cells [fold]	Fold Change in Potency compared to parental non-masked WT IL12 variant v30806 (Variant EC50/Parental Variant EC50); IFNγ production by CD8T cells [fold]	Fold Change in Potency compared to corresponding non-masked reduced-potency IL12 variant v33498 (Masked Variant EC50/Non-masked Variant EC50); IFNγ production by CD8T cells [fold]	Fold Change in Potency compared to corresponding non-masked reduced-potency IL12 variant v33499 (Masked Variant EC50/Non-masked Variant EC50); IFNγ production by CD8T cells [fold]	Binder
132	52000			33507 (Briakinumab scFv-masked reduced-potency IL12 HetFc fusion, p35 F39S_Y40S_Y167S) (Fc fusion) chain 1: [gap - human IgG1 Fc with changes]SADGGIWELKKDVYVVELDWYPDAPGEMVVLTCDTPEEDGITWTLDQSSEVLGSGKTLTIQVKEFGDAGQYTCHKGGEVLSHSLLLLHKKEDGIWSTDILKDQKEPKNKTFLRCEAKNYSGRFTCWWLTTISTDLTFSVKSSRGSSDPQGVTCGAATLSAERVRGDNKEYEYSVECQEDSACPAAEESLPIEVMVDAVHKLKYENYTSSFFIRDIIKPDPPKNLQLKPLKNSRQVEVSWEYPDTWSTPHSYFSLTFCVQVQGKSKREKKDRVFTDKTSATVICRKNASISVRAQDRYYSSSWSEWASVPCSGGGGSGGGGSGGGGSNLPVATPDPGMFPCLHHSQNLLRAVSNMLQKARQTLESSPCTSEEIDHEDITKDKTSTVEACLPLELTKNESCLNSRETSFITNGSCLASRKTSFMMALCLSSIYEDLKMYQVEFKTMNAKLLMDPKRQIFLDQNMLAVIDELMQALNFNSETVPQKSSLEEPDFSKTKIKLCILLHAFRIRAVTIDRVMSYLNAS chain 2: EPKSSDKTHTCPPCPAPEAAGGPSVFLFPPKPKDTLMISRTPEVTCVVVSVSHEDPEVKFNWYVDGVEVHNAKTKPREEQYNSTYRVVSVLTVLHQDWLNGKEYKCKVSNKALPAPIEKTISKAKGQPREPQVYVLPPSRDELTKNQVSLLCLVKGFYPSDIAVEWESNGQPENNYLTWPPVLDSDGSFFLYSKLTVDKSRWQQGNVFSCSVMHEALHNHYTQKSLSLSPGGGGGSGGGGSMSGRSANAGGGGSGGGGSQVQLVESGGGVVQPGRSLRLSCAASGFTFSSYGMHWVRQAPGKGLEWVAFIRYDGSNKYYADSVKGRFTISRDNSKNTLYLQMNSLRAEDTAVYYCKTHGSHDNWGQGTMVTVSSGGGGSMSGRSANAGGGGSGGGGSQSVLTQPPSVSGAPGQRVTISCSGSRSNIGSNTVKWYQQLPGTAPKLLIYYNDQRPSGVPDRFSGSKSGTSASLAITGLQAEDEADYYCQSYDRYTHPALLFGTGTKVTVL
	5560	329		33510 (Briakinumab scFv-masked reduced-potency IL12 HetFc fusion, p40 D41S_E45R_K58S_E59S_K195D) (Fc fusion) chain 1: [gap - human IgG1 Fc with changes]SADGGIWELKKDVYVVELDWYPDAPGEMVVLTCDTPEEDGITWTLSQSSRVLGSGKTLTIQVSSFGDAGQYTCHKGGEVLSHSLLLLHKKEDGIWSTDILKDQKEPKNKTFLRCEAKNYSGRFTCWWLTTISTDLTFSVKSSRGSSDPQGVTCGAATLSAERVRGDNKEYEYSVECQEDSACPAAEESLPIEVMVDAVHDLKYENYTSSFFIRDIIKPDPPKNLQLKPLKNSRQVEVSWEYPDTWSTPHSYFSLTFCVQVQGKSKREKKDRVFTDKTSATVICRKNASISVRAQDRYYSSSWSEWASVPCSGGGGSGGGGSGGGGSNLPVATPDPGMFPCLHHSQNLLRAVSNMLQKARQTLEFYPCTSEEIDHEDITKDKTSTVEACLPLELTKNESCLNSRETSFITNGSCLASRKTSFMMALCLSSIYEDLKMYQVEFKTMNAKLLMDPKRQIFLDQNMLAVIDELMQALNFNSETVPQKSSLEEPDFYKTKIKLCILLHAFRIRAVTIDRVMSYLNAS chain 2: EPKSSDKTHTCPPCPAPEAAGGPSVFLFPPKPKDTLMISRTPEVTCVVVSVSHEDPEVKFNWYVDGVEVHNAKTKPREEQYNSTYRVVSVLTVLHQDWLNGKEYKCKVSNKALPAPIEKTISKAKGQPREPQVYVLPPSRDELTKNQVSLLCLVKGFYPSDIAVEWESNGQPENNYLTWPPVLDSDGSFFLYSKLTVDKSRWQQGNVFSCSVMHEALHNHYTQKSLSLSPGGGGGSGGGGSMSGRSANAGGGGSGGGGSQVQLVESGGGVVQPGRSLRLSCAASGFTFSSYGMHWVRQAPGKGLEWVAFIRYDGSNKYYADSVKGRFTISRDNSKNTLYLQMNSLRAEDTAVYYCKTHGSHDNWGQGTMVTVSSGGGGSMSGRSANAGGGGSGGGGSQSVLTQPPSVSGAPGQRVTISCSGSRSNIGSNTVKWYQQLPGTAPKLLIYYNDQRPSGVPDRFSGSKSGTSASLAITGLQAEDEADYYCQSYDRYTHPALLFGTGTKVTVL
	195		67	33511 (Briakinumab scFv-masked reduced-potency IL12 HetFc fusion, p40 K99S_E100S_R159S) (Fc fusion) chain 1: [gap - human IgG1 Fc with changes]SADGGIWELKKDVYVVELDWYPDAPGEMVVLTCDTPEEDGITWTLDQSSEVLGSGKTLTIQVKEFGDAGQYTCHKGGEVLSHSLLLLHKKEDGIWSTDILKDQSSPKNKTFLRCEAKNYSGRFTCWWLTTISTDLTFSVKSSRGSSDPQGVTCGAATLSAERVSGDNKEYEYSVECQEDSACPAAEESLPIEVMVDAVHKLKYENYTSSFFIRDIIKPDPPKNLQLKPLKNSRQVEVSWEYPDTWSTPHSYFSLTFCVQVQGKSKREKKDRVFTDKTSATVICRKNASISVRAQDRYYSSSWSEWASVPCSGGGGSGGGGSGGGGSNLPVATPDPGMFPCLHHSQNLLRAVSNMLQKARQTLEFYPCTSEEIDHEDITKDKTSTVEACLPLELTKNESCLNSRETSFITNGSCLASRKTSFMMALCLSSIYEDLKMYQVEFKTMNAKLLMDPKRQIFLDQNMLAVIDELMQALNFNSETVPQKSSLEEPDFYKTKIKLCILLHAFRIRAVTIDRVMSYLNAS chain 2: EPKSSDKTHTCPPCPAPEAAGGPSVFLFPPKPKDTLMISRTPEVTCVVVSVSHEDPEVKFNWYVDGVEVHNAKTKPREEQYNSTYRVVSVLTVLHQDWLNGKEYKCKVSNKALPAPIEKTISKAKGQPREPQVYVLPPSRDELTKNQVSLLCLVKGFYPSDIAVEWESNGQPENNYLTWPPVLDSDGSFFLYSKLTVDKSRWQQGNVFSCSVMHEALHNHYTQKSLSLSPGGGGGSGGGGSMSGRSANAGGGGSGGGGSQVQLVESGGGVVQPGRSLRLSCAASGFTFSSYGMHWVRQAPGKGLEWVAFIRYDGSNKYYADSVKGRFTISRDNSKNTLYLQMNSLRAEDTAVYYCKTHGSHDNWGQGTMVTVSSGGGGSMSGRSANAGGGGSGGGGSQSVLTQPPSVSGAPGQRVTISCSGSRSNIGSNTVKWYQQLPGTAPKLLIYYNDQRPSGVPDRFSGSKSGTSASLAITGLQAEDEADYYCQSYDRYTHPALLFGTGTKVTVL
